About 1,800 (2.5%) of roughly 71,000 compounds were called active. The inconclusive results got no clear call from the source; some entries with a clear call stand among them for comparison. Calls follow the shape of the dose curve; as a rule, active = well fitted activation curve with a large enough effect in the signal ratio, with a control signal flat (not every such curve was filed as active); inconclusive = small, poorly fitted or top-dose-only effect, or effect the other way, or a change in a side signal; inactive = flat fitted curve, though single readings scatter; the % refers to the signal ratio. Potencies beside an inconclusive call are fits to weak or partial responses and may not hold up.
Experiment: Cell signaling CRE-BLA (Fsk stim); as to activity change, negative = inhibition: % of control where 0% means no effect
Conditions: CHO CRE-bla reporter (cAMP response element driving beta-lactamase), forskolin EC10, beta-lactamase ratio
Procedure, shortened: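 Using CellSensor CRE-bla CHO cells in Opti-MEM with 0.5% dialyzed FBS, compounds were titrated with EC10 NKH 477 for 3 h at 37 °C. CCF4 ratio (460/530 nm) gave %Activity; AC50 derived.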

[1] = activity change, negative = inhibition: at 38.2 µM (top of the series) unless noted
Potency is read from the fitted curve at half-maximal effect; tags tell the direction and shape of the fitted curve.

In the case of `CC(=O)NS(=O)(=O)c1ccc(NS(=O)(=O)c2ccc(F)cc2)cc1`, the activity change, negative = inhibition [1] is reported as “inactive”.

For `O=C(NCc1cccs1)C1CCN(S(=O)(=O)c2cccs2)CC1`, the activity change, negative = inhibition [1] was inconclusive: -0.984%.

For `Cc1nc2ccc(NC(=O)Nc3ccnc4cccnc34)cc2o1`, the activity change, negative = inhibition [1] was inconclusive: -0.482%.

In the case of `CC1(C(=O)NC2CCCC2)CCC(=O)N1CCC1=CCCCC1` (stereo not given), the activity change, negative = inhibition [1] is reported as “inactive”.

In the case of `CCC(CC)C(=O)Nc1cccc(-c2nc3ccccc3o2)c1`, the Potency [1] is reported as inconclusive: 10 µM [rising, single point].

With `Cc1ccc(-c2ccc(SCC(=O)Nc3nonc3C)nn2)cc1` the activity change, negative = inhibition [1] was inconclusive: -9.49%.

With `CCn1c(SC(=O)NC2CCCCC2)nnc1-c1cccs1` the activity change, negative = inhibition [1] was “inactive”.

For `CCOC(=O)c1c(-c2ccccc2)oc2ccc(O)c(CN3CCOCC3)c12`, the activity change, negative = inhibition [1] was “inactive”.

With `Cc1cc(C)n2nc(C(=O)NCc3ccco3)nc2n1` the activity change, negative = inhibition [1] was “inactive”.

For `CCC(=O)Nc1cc(C)c(NC(=O)CCc2ccccc2)cn1`, the activity change, negative = inhibition [1] was “inactive”.

In the case of `CCN(CCCNC(=O)CC1Oc2ccc(C)cc2NC1=O)Cc1ccccc1` (stereo not given), the activity change, negative = inhibition [1] is reported as “inactive”.

In the case of `O=c1c2cc(N3CCOCC3)ccc2[nH]c(=S)n1Cc1ccco1`, the activity change, negative = inhibition [1] is reported as “inactive”.

For `O=C(Nc1ccc2nsnc2c1)c1cccs1`, the activity change, negative = inhibition [1] was inconclusive: -7.93%.

In the case of `COC(=O)c1ccc(OC)c(CSc2nnc(-c3ccc(C)cc3)o2)c1`, the activity change, negative = inhibition [1] is reported as “inactive”.

In the case of `CCc1ccc2nc(SCC(=O)N(CC)CC)c(C#N)cc2c1`, the Potency [1] is reported as inconclusive: 5.01 µM [rising, partial curve].

With `Cc1nc2oc3c(NCc4ccccc4)ncnc3c2c2c1COC(C)(C)C2` the Potency [1] was active: 5.01 µM.

In the case of `CC1Cc2ccccc2N1C(=O)CSc1nnc(-c2ccc(S(=O)(=O)N3CCCC3)cc2)o1` (stereo not given), the activity change, negative = inhibition [1] is reported as “inactive”.

For `CC(C)(C)NCc1cccn1-c1sc2c(c1C#N)CCCC2`, the activity change, negative = inhibition [1] was “inactive”.

With `COc1ccc(CNc2ccnc(-c3cccc(C#N)c3)n2)c(OC)c1` the Potency [1] was inconclusive: 3.16 µM [rising, partial curve].

In the case of `CSc1nc2ccccc2n1Cc1cccc(F)c1`, the activity change, negative = inhibition [1] is reported as inconclusive: 28.9%.

For `CCCOc1ccc(C(=O)N2CCN(c3ccc(NC(=O)CC)cc3Cl)CC2)cc1`, the Potency [1] was inconclusive: 6.31 µM [falling, partial curve, poor fit].

With `COC(=O)c1cc(OC)c(OC)cc1NC(=O)CCc1ccc(C)o1` the Potency [1] was inconclusive: 10 µM [rising, single point].

For `CCCCOc1ccc(C2C3CN(C(=O)OCC)CC=C3C(C#N)=C(N)C2(C#N)C#N)cc1OC` (stereo not given), the Potency [1] was inconclusive: 10 µM [rising, partial curve].

In the case of `CCOc1ccc(C(C)=O)cc1N1C(=O)C2C3C=CC(C3)C2C1=O` (stereo not given), the activity change, negative = inhibition [1] is reported as inconclusive: -2.54%.

For `Cc1cc(NC(=O)CSc2ccc3nnc(-c4ccccn4)n3n2)no1`, the activity change, negative = inhibition [1] was “inactive”.

In the case of `CCCn1c(C)nc2c(N(CCN(C)C)Cc3ccccc3)nc(C)nc21`, the Potency [1] is reported as active: 12.6 µM.

With `C=C(C)Cn1c(COc2ccccc2)nnc1SCC(=O)O` the activity change, negative = inhibition [1] was inconclusive: 20.7%.

In the case of `C=CCSc1nc2ccccc2c(=O)n1Cc1ccco1`, the activity change, negative = inhibition [1] is reported as inactive: 7.26% [at 7.6 µM].

For `c1ccc(CNc2nc3ccccc3n3cnnc23)nc1`, the Potency [1] was active: 12.6 µM.

For `CCc1cc2c(=O)c(-c3ccon3)c(N)oc2cc1OC`, the Potency [1] was inconclusive: 10 µM [rising, partial curve].

With `N=c1c(C(=O)NCc2ccc(F)cc2)cc2c(=O)n3ccccc3nc2n1CCCN1CCOCC1` the Potency [1] was active: 2.51 µM.

For `OC[C@@H](O)COc1cccc2ccccc12`, the activity change, negative = inhibition [1] was “inactive”.

In the case of `Nc1cc(C(=O)O)ccc1Nc1ccccc1`, the activity change, negative = inhibition [1] is reported as inconclusive: -24.7% [at 7.6 µM].

In the case of `O=Cc1ccccc1Cl`, the activity change, negative = inhibition [1] is reported as “inactive”.

For `COc1ccc(NC(=O)N2CCC(c3ccccc3)C2)c(OC)c1` (stereo not given), the activity change, negative = inhibition [1] was “inactive”.

In the case of `COC(=O)c1ccccc1NC(=O)CN1CCN(C(=O)c2ccco2)CC1`, the Potency [1] is reported as inconclusive: 3.98 µM [rising, single point].

With `Cc1nc2sccn2c1-c1nc(C2CC2)c(C(=O)c2ccc3c(c2)NC(=O)CO3)s1` the Potency [1] was active: 2.51 µM.

In the case of `O=C(COC(=O)c1cccnc1)c1ccc(Cl)cc1`, the activity change, negative = inhibition [1] is reported as “inactive”.

With `COc1ccc(N2CC(C)Cn3c2nc2c3c(=O)n(CCc3ccccc3)c(=O)n2C)cc1` (stereo not given) the Potency [1] was inconclusive: 12.6 µM [rising, single point].

For `c1csc(Cn2c(-c3cccs3)nc3ccccc32)c1`, the activity change, negative = inhibition [1] was “inactive”.

For `Cc1ccc(CCN2CC(C(=O)NC3CCCC3)CC2=O)cc1` (stereo not given), the activity change, negative = inhibition [1] was “inactive”.

For `O=C(NCc1ccccc1)C1CCN(S(=O)(=O)c2cccc3cccnc23)CC1`, the activity change, negative = inhibition [1] was “inactive”.

For `CCOC(=O)N1CCC(NC(=O)CCN2C(=O)C3C4C=CC(C4)C3C2=O)CC1` (stereo not given), the activity change, negative = inhibition [1] was inconclusive: 6.67%.

In the case of `CCOC(=O)Cc1csc(NC(=O)c2ccc(S(=O)(=O)N3CCCC3)cc2)n1`, the activity change, negative = inhibition [1] is reported as inconclusive: 8.13%.

In the case of `CCO/C=C/C(=O)N(C)CCC#N`, the activity change, negative = inhibition [1] is reported as “inactive”.

For `CC(=O)NCCSC(=O)c1ccc(F)cc1`, the activity change, negative = inhibition [1] was “inactive”.

In the case of `CC(=O)c1c(C)[nH]c(C(=O)NCCC2=CCCCC2)c1C`, the activity change, negative = inhibition [1] is reported as inconclusive: 3.98%.

In the case of `CCOC(=O)C1=C(N)Oc2ccc(Br)cc2[C@@H]1[C@@H](C#N)C(=O)OCC`, the activity change, negative = inhibition [1] is reported as “inactive”.

With `O=C(CCn1nc(-c2ccccc2)ccc1=O)N1CCN(c2ccccn2)CC1` the activity change, negative = inhibition [1] was inconclusive: 12.7%.

For `COc1cc(NC(=O)C2CCCN2S(=O)(=O)c2cccc3cccnc23)cc(OC)c1OC` (stereo not given), the Potency [1] was inconclusive: 10 µM [rising, partial curve].

With `COC(=O)c1ccc(NC(=O)NS(=O)(=O)c2ccc(C)cc2)cc1` the activity change, negative = inhibition [1] was “inactive”.

For `COCCn1c(SCc2ccc(C(=O)OC)o2)nc2ccccc2c1=O`, the Potency [1] was active: 12.6 µM.

For `O=C(Nc1ccc2c(c1)OCO2)C1CCCCN1S(=O)(=O)c1ccc(F)cc1` (stereo not given), the activity change, negative = inhibition [1] was inconclusive: -12.6%.

In the case of `Cn1cc(-c2nc3cnc(N4CCNCC4)nc3n(Cc3ccc(F)cc3)c2=O)c2ccccc21`, the Potency [1] is reported as inconclusive: 0.501 µM [rising, full curve].

In the case of `O=C(COC(=O)c1cccc(S(=O)(=O)N2CCOCC2)c1)Nc1ccc2c(c1)OCO2`, the Potency [1] is reported as inconclusive: 3.16 µM [falling, single point].

In the case of `CN(C)Cc1ccccc1-c1nc(NCc2cccs2)c2ccccc2n1`, the activity change, negative = inhibition [1] is reported as inconclusive: 27.3%.

For `Fc1cccc(-c2cc3nc4c(c(N5CCOCC5)n3n2)CCCC4)c1`, the Potency [1] was active: 10 µM.

With `CCc1ccc(-c2nc(-c3ccncc3)no2)cc1` the Potency [1] was inconclusive: 5.01 µM [rising, single point].

With `CC(C)C[C@@H](CC(=O)N[C@@H](CCC(=O)O)CC(=O)O)NC(=O)[C@@H]1CNCC[C@H]1NC(=O)C[C@@H](NC(=O)C[C@H](Cc1ccccc1)NC(=O)[C@@H]1CCCC[C@H]1N)C(C)C` the activity change, negative = inhibition [1] was “inactive”.

For `CCOP(=O)(c1ccccc1Cl)C1(O)CCCCC1` (stereo not given), the activity change, negative = inhibition [1] was “inactive”.

With `CCCOc1nc2c(c(=O)n(C)c(=O)n2C)n1CC` the Potency [1] was inconclusive: 10 µM [rising, single point].

With `COc1ccc(C2C(C#N)=C(N)Oc3cc(O)ccc32)cc1OC` (stereo not given) the Potency [1] was inconclusive: 10 µM [rising, partial curve].

In the case of `Cc1nn(-c2ccccc2)c2sc(C(=O)OCN3C(=O)c4ccccc4C3=O)cc12`, the Potency [1] is reported as active: 1.58 µM.

For `O=C(c1ccco1)c1cn[nH]c1-c1ccc(Cl)cc1O`, the activity change, negative = inhibition [1] was inconclusive: 9.95%.

With `CC1(C)C(=O)NCCN1C(=O)CSc1nccc(-c2ccc(Br)cc2)n1` the Potency [1] was inconclusive: 12.6 µM [rising, single point].

For `N[C@H](C(=O)O)[C@@H]1C[C@@H]1C(=O)O`, the activity change, negative = inhibition [1] was inconclusive: -2.91% and the activity change, negative = inhibition (at 38.2 µM (top of the series)) was inactive: -1.09%.

With `CCC(=O)N1CCN(c2ccccc2NC(=O)COc2cc(C)ccc2C(C)C)CC1` the activity change, negative = inhibition [1] was inconclusive: -29%.

For `COc1ccc(NC(=O)CN2C(=O)C(C)Oc3ccccc32)c(OC)c1` (stereo not given), the Potency [1] was inconclusive: 3.98 µM [rising, single point].

For `Cc1ccc(-c2cc(-c3ccc4c(c3)OCO4)c(C#N)c(N)n2)o1`, the Potency [1] was inconclusive: 15.8 µM [rising, single point].

In the case of `COc1ccc(CCn2c(-c3ccco3)nc3oc4ccccc4c(=O)c3c2=O)cc1`, the activity change, negative = inhibition [1] is reported as “inactive”.

With `Cc1cccc(Nc2nn3c(=O)c4ccccc4nc3s2)c1` the Potency [1] was inconclusive: 2.51 µM [falling, partial curve, poor fit].

In the case of `CC1CCC(NC(=O)CN2CCC(n3nnc4cc(F)ccc43)CC2)CC1` (stereo not given), the activity change, negative = inhibition [1] is reported as inconclusive: 27.1%.

In the case of `COC(=O)[C@@]1(Cc2ccccc2)[C@@H]2C(=CC(=O)[C@H]2CC(=O)C(=O)N(C)C)CN1C(=O)c1ccccc1`, the Potency [1] is reported as inconclusive: 10 µM [falling, single point].

In the case of `COc1cc(C(=O)NCc2cn3ccccc3n2)cc(OC)c1OC`, the Potency [1] is reported as inconclusive: 10 µM [rising, partial curve].

With `O=c1oc2c3c4c(cc2cc1-c1nc2ccccc2[nH]1)CCCN4CCC3` the activity change, negative = inhibition [1] was inconclusive: 13.3%.

For `CC(C)(C)[C@@]1(O)CCN2C[C@@H]3c4ccccc4CCc4cccc(c43)[C@@H]2C1`, the activity change, negative = inhibition [1] was inconclusive: -10.6% and the activity change, negative = inhibition (at 38.2 µM (top of the series)) was inactive: -12.7%.

In the case of `O=S(=O)(c1ccccc1)N1CCC2(CCCN(c3ccccn3)C2)CC1`, the activity change, negative = inhibition [1] is reported as “inactive”.

In the case of `CCNc1ncc2nc(-c3ccc(F)cc3)c(=O)n(CCc3ccccc3)c2n1`, the Potency [1] is reported as inconclusive: 0.794 µM [rising, full curve].

For `CCCc1[nH]nc2c1C(c1ccc(OC)c(Cn3nc(C)c(Br)c3C)c1)C(C#N)=C(N)O2` (stereo not given), the Potency [1] was inconclusive: 25.1 µM [rising, single point].

In the case of `O=C(Nc1ccc(-c2noc(CCc3ccccc3)n2)cc1)c1cccnc1`, the activity change, negative = inhibition [1] is reported as inconclusive: -17.7%.

For `COc1ccc(Cl)cc1NC(=O)CSc1ncnc2c1oc1ccccc12`, the Potency [1] was active: 0.1 µM.

For `COc1cc(C(=O)NCc2ccco2)cc(OC)c1OC`, the Potency [1] was inconclusive: 10 µM [rising, single point].

With `COc1ccc(-c2ccc(SCC(=O)N3CCCC3)nn2)cc1OC` the Potency [1] was inconclusive: 15.8 µM [rising, partial curve].

— PubChem BioAssay AID662 (National Center for Advancing Translational Sciences (NCATS), 2007)
